In a collection of fitness landscapes (doi:10.1126/science.1257360) one finds enrichment ratio data, which are given here for 195 variants.

Some of the results follow.

Sequences and labels used below:
B1: PhoQ; a variant is named by its letters at X, in order, P23837 (parent)
chain: MKKLLRLFFPLSLRVRFLLATAAVVLVLSLAYGMVALIGYSVSFDKTTFRLLRGESNLFYTLAKWENNKLHVELPENIDKQSPTMTLIYDENGQLLWAQRDVPWLMKMIQPDWLKSNGFHEIEADVNDTSLLLSGDHSIQQQLQEVREDDDDAEMTHSVAVNVYPATSRMPKLTIVVVDTIPVELKSSYMVWSWFIYVLSANLLLVIPLLWVAAWWSLRPIEALAKEVRELEEHNRELLNPATTRELTSLVRNLNRLLKSERERYDKYRTTLTDLTHSLKTPLXXLQXXLRSLRSEKMSVSDAEPVMLEQISRISQQIGYYLHRASMRGGTLLSRELHPVAPLLDNLTSALNKVYQRKGVNISLDISPEISFVGEQNDFVEVMGNVLDNACKYCLEFVEISARQTDEHLYIVVEDDGPGIPLSKREVIFDRGQRVDTLRPGQGVGLAVAREITEQYEGKIVAGESMLGGARMEVIFGRQHSAPKDE

Variants of B1 are the subject of the assay. Description: enrichment ratio after two sorts for PhoP signalling (ratio (wild type AVST 3.29)); higher = more functional. Conditions: with PhoP (E. coli).
FNLS: the enrichment ratio is at most 0.25. The figure for MKCI is at most 0.25; for KHCK it is at most 0.25; for LDKW it is at most 0.25. With CVSR the figure was at most 0.25; with EFIK, at most 0.25; with YFPP, at most 0.25. The figure for TFPS is at most 0.25; for AQNV it is at most 0.25.

Turning to AMLY, the enrichment ratio came to 2.86. As to ECIK, the enrichment ratio was at most 0.25. With GQAE the figure was at most 0.25. As for AEFW, the enrichment ratio was at most 0.25.

As to WPEA, the enrichment ratio was at most 0.25. RWHA: the enrichment ratio is at most 0.25. With RPAG the figure was at most 0.25; with FITT, at most 0.25.

As for HQSD, the enrichment ratio was at most 0.25. In the case of FCVI, the enrichment ratio is at most 0.25. Take HKGF: the enrichment ratio was at most 0.25. HQKL: the enrichment ratio is at most 0.25.

As to FREP, the enrichment ratio was at most 0.25. The figure for GNPT is at most 0.25. The figure for NQSF is at most 0.25.

With EVRR, the enrichment ratio was determined as 0.276. The figure for NRQG is at most 0.25. With SLFD the figure was at most 0.25; with DSRF, at most 0.25; with HKDY, at most 0.25. With DRSL the figure was at most 0.25; with LKQD, at most 0.25; with LQKA, at most 0.25. Turning to YITW, the enrichment ratio is at most 0.25.

On to TQTG, for which the enrichment ratio turned out to be 5.83.

In the case of TRYL, the enrichment ratio was at most 0.25.

As for WFCF, the enrichment ratio is at most 0.25. With NKIA the figure was at most 0.25; with GGGK, at most 0.25. With WGNK the figure was at most 0.25; with SKRT, at most 0.25. With VHGC, the enrichment ratio was at most 0.25. The figure for QDYL is at most 0.25; for KFPL it is at most 0.25; for IENF it is at most 0.25. The figure for YDLR is at most 0.25; for KDQV it is at most 0.25; for ISVN it is at most 0.25.

As to PSAN, the enrichment ratio is at most 0.25.

As to TFHL, the enrichment ratio was found to be 2.95. With ENQG the figure was at most 0.25; with GSHQ, at most 0.25.

HFWW: the enrichment ratio is at most 0.25. The figure for PGND is at most 0.25. Regarding ELRL, the enrichment ratio is at most 0.25.

With EYSD, the enrichment ratio was at most 0.25. The figure for IAMK is at most 0.25; for GRFG it is at most 0.25. Consider HWMH, for which the enrichment ratio is at most 0.25.

MWDS: the enrichment ratio was at most 0.25. As for WAAF, the enrichment ratio was at most 0.25.

Consider IKMC, for which the enrichment ratio was at most 0.25.

With AWGC, the enrichment ratio was at most 0.25. As for ACYI, the enrichment ratio worked out at 0.618. As to SKRR, the enrichment ratio is at most 0.25.

ELKS: the enrichment ratio was at most 0.25. The figure for PNLI is at most 0.25; for RWAY it is at most 0.25. With GMNL the figure was at most 0.25. Turning to KCPR, the enrichment ratio was at most 0.25. On to HLKY, for which the enrichment ratio is at most 0.25. The figure for PSDA is at most 0.25; for DIWL it is at most 0.25; for GQKI it is at most 0.25. With DGCS the figure was at most 0.25; with RLGR, at most 0.25. In the case of KMWI, the enrichment ratio is at most 0.25. In the case of FWFY, the enrichment ratio is at most 0.25. Turning to VAVP, the enrichment ratio is at most 0.25.

With WPQD, the enrichment ratio is at most 0.25. As to INEQ, the enrichment ratio is at most 0.25.

Take YMGM: the enrichment ratio is at most 0.25. The figure for TYNW is at most 0.25; for GRGF it is at most 0.25. With VPLF the figure was at most 0.25; with TTEQ, at most 0.25; with FDRG, at most 0.25. For DHHG, the enrichment ratio is at most 0.25. With NDYR the figure was at most 0.25. Consider LPAD, for which the enrichment ratio is at most 0.25. With YAHH the figure was at most 0.25; with MAPI, at most 0.25. For the variant HGSQ, the enrichment ratio is at most 0.25. With YQIH the figure was at most 0.25. As to MVGH, the enrichment ratio was at most 0.25. As to HQCN, the enrichment ratio is at most 0.25. The figure for VDLQ is at most 0.25.

Turning to RLTC, the enrichment ratio is at most 0.25. With HSHF, the enrichment ratio was at most 0.25. With VDVT the figure was at most 0.25; with HADY, at most 0.25; with HGQS, at most 0.25. The figure for QPHL is at most 0.25; for AVPI it is 2.35; for DIVH it is at most 0.25. On to EMRC, for which the enrichment ratio is at most 0.25.

On to DKHF, for which the enrichment ratio was at most 0.25. The figure for GRWK is at most 0.25; for VSCF it is 1.14; for SKHT it is at most 0.25.

IEAP: the enrichment ratio is at most 0.25. With LTTD the figure was at most 0.25; with HSTI, 4.66; with LVTK, at most 0.25. Take WTSR: the enrichment ratio is at most 0.25. With DQNN the figure was at most 0.25. Consider SNNW, for which the enrichment ratio came to 1.31. For the variant TEVV, the enrichment ratio amounted to 12.9. The figure for YDKT is at most 0.25; for KGWK it is at most 0.25. For the variant FFVW, the enrichment ratio was at most 0.25. Regarding EWFG, the enrichment ratio is at most 0.25. On to PHPA, for which the enrichment ratio is at most 0.25. Regarding WFGM, the enrichment ratio is at most 0.25. In the case of KVHK, the enrichment ratio is at most 0.25. In the case of LIRI, the enrichment ratio was at most 0.25.

For the variant TAMS, the enrichment ratio turned out to be 7.61. Turning to PTVA, the enrichment ratio was at most 0.25. As for FYPG, the enrichment ratio was at most 0.25. The figure for LGWI is 2.54. The figure for KCQC is at most 0.25.

Consider ARIY, for which the enrichment ratio was at most 0.25. With VKKH the figure was at most 0.25. The figure for KTGV is at most 0.25; for QPMF it is at most 0.25; for NCFT it is at most 0.25. With RPVD the figure was at most 0.25. As to MSWT, the enrichment ratio amounted to 10.2. On to EGFT, for which the enrichment ratio is at most 0.25. With IGQA the figure was at most 0.25. On to HTMT, for which the enrichment ratio is at most 0.25. For STFG, the enrichment ratio was at most 0.25. The figure for HEPN is 18.8. With DTVV the figure was at most 0.25; with YIWP, at most 0.25; with YQAM, at most 0.25. The figure for WPMH is at most 0.25; for GICV it is 8.05. Regarding IGHF, the enrichment ratio is at most 0.25. The figure for LLTV is at most 0.25; for QHAH it is at most 0.25.

For NADC, the enrichment ratio was at most 0.25. In the case of KNYS, the enrichment ratio is at most 0.25. The figure for EDNR is at most 0.25. The figure for QNGL is 1.23.

As to QPIC, the enrichment ratio is at most 0.25.

In the case of AYNF, the enrichment ratio was at most 0.25. With PNVM the figure was at most 0.25; with MTNT, at most 0.25. The figure for IKKT is at most 0.25. With RGCT the figure was at most 0.25; with MIHK, at most 0.25; with YRLM, at most 0.25. As to HGYM, the enrichment ratio was at most 0.25. Consider TCKQ, for which the enrichment ratio was at most 0.25.

Turning to AIGI, the enrichment ratio worked out at 11.8. LMLA: the enrichment ratio is at most 0.25. Consider NWVG, for which the enrichment ratio is at most 0.25. PMRG: the enrichment ratio is at most 0.25.

On to QTME, for which the enrichment ratio was at most 0.25. With DCRT the figure was at most 0.25; with ENFF, at most 0.25. Take NEMV: the enrichment ratio came out at 14.8.

With CFFT, the enrichment ratio is at most 0.25.

Consider NLYQ, for which the enrichment ratio was at most 0.25.

As to EEDY, the enrichment ratio is at most 0.25. The figure for SPLF is at most 0.25; for PNLS it is at most 0.25. Take PARA: the enrichment ratio was at most 0.25.

For VLVA, the enrichment ratio is at most 0.25. Regarding SKMF, the enrichment ratio was determined as 2.03. Take YGSN: the enrichment ratio is at most 0.25. As to NCAA, the enrichment ratio was at most 0.25. Consider DLVR, for which the enrichment ratio is at most 0.25.

For PRGK, the enrichment ratio is at most 0.25. In the case of QRPF, the enrichment ratio is at most 0.25. Consider VVNI, for which the enrichment ratio was at most 0.25. For PCCD, the enrichment ratio is at most 0.25. As to QMPI, the enrichment ratio is at most 0.25. The figure for VHTE is at most 0.25; for KMTN it is at most 0.25.

As to PFPG, the enrichment ratio was at most 0.25.

Consider IHFM, for which the enrichment ratio is at most 0.25. As for ICRC, the enrichment ratio is at most 0.25.

For NFQI, the enrichment ratio was at most 0.25. With PFWM the figure was at most 0.25.
